# Values joined by “and” are separate entries in the source; they are usually repeats but may differ in a detail not shown here. Equal values may be shown once. Inconclusive means that the source gave no clear call. Such entries were picked first, then a sample of the others. For part of these data: Potencies of inconclusive entries are doubtful fits and often do not repeat. A structure can be active in one record and inactive in another. Active and inactive are the calls of the source. Unless noted, calls follow the shape of the dose curve; as a rule, active = well fitted curve in the direction sought with a large enough effect in the repeat runs; inconclusive = weak or mixed curves; inactive = no such curve, though single readings can be large; an effect the other way counts as inactive or inconclusive.
# Assays:
# [1] = qHTS assay to identify small molecule agonists of the TGF-beta/Smad signaling pathway (AID 1346859; active = well fitted activation curve with a large enough effect in the signal ratio in the repeat runs, not every such curve was filed as active; inconclusive = weak or mixed curves; the % refers to the signal ratio; also: potency is read from the fitted curve at half-maximal effect; as to activation: % is scaled to controls: 0 for no effect and ±100 for the full control effect); details: SBE-bla HEK293T, TGF-beta/Smad beta-lactamase reporter, 5 h; activation: at 76.8 µM (top of the series) unless noted
# Outline: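 SBE-bla HEK 293T, 4,000 cells/well, plated o/n; cpd in DMSO, 5 hr, 37 C/5% CO2; B/G FRET substrate 2 hr RT; ex 405, em 460/530 nm.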
# [2] = qHTS assay to identify small molecule antagonists of the TGF-beta/Smad signaling pathway (AID 1346924; active = well fitted inhibition curve with a large enough effect in the signal ratio in the repeat runs, not every such curve was filed as active; inconclusive = weak or mixed curves; the % refers to the signal ratio); details: SBE-bla HEK293T, TGF-beta/Smad reporter, beta-lactamase ratio; activity, negative = inhibition: at 76.8 µM (top of the series) unless noted
# Outline: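 SBE-bla HEK 293T cells were plated overnight, then received compound in DMSO plus TGF-beta1 (added as a 0.25 ng/mL solution) and were incubated 5 h at 37 C. Beta-lactamase reporter activity was read after 2 h at room temperature with LiveBLAzer B/G FRET substrate (ex 405, em 460/530 nm).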
# [3] = Human pregnane X receptor (PXR) small molecule agonists, qHTS cell viability counter screen (AID 1346977); also: potency is read from the fitted curve at half-maximal effect; nearly all actives have a fitted effect of over 50% in size
# Outline: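 PXR-Luc HepG2, 2,000 cells/well, 5% charcoal-stripped FBS; 5hr settle; cpd 24hr, 37C/5% CO2; CellTiter-Fluor at 23hr, read 1hr later (fluorescence).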
# [4] = Caspase-3/7 induction in CHO-K1 cells by small molecules, qHTS cell viability counter screen (AID 1346979); also: potency is read from the fitted curve at half-maximal effect; nearly all actives have a fitted effect of over 35% in size
# Outline: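 Cells (CHO-K1, wild type) are plated at 1,500 per well and incubated 5hr. Test compounds in DMSO are then pinned in, followed by 16hr at 37C and 5% CO2. Viability is read by CellTiter-Fluor fluorescence after 1hr.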
# [5] = Caspase-3/7 induction in HepG2 cells by small molecules, qHTS cell viability counter screen (AID 1346981); also: nearly all actives have a fitted effect of over 30% in size; also: potency is read from the fitted curve at half-maximal effect
# Outline: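 Multiplexed with the caspase-3/7 assay: HepG2 cells, 16 hr compound treatment, CellTiter-Fluor viability detection by fluorescence.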
# [6] = target: Nuclear receptor subfamily 1 group I member 2 (Homo sapiens) (UniProt O75469); assay: Human pregnane X receptor (PXR) small molecule agonists, qHTS assay (AID 1346982); also: potency is read from the fitted curve at half-maximal effect; nearly all actives have a fitted effect of over 35% in size
# Outline: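 We seeded PXR-Luc HepG2 cells in assay medium containing 5% charcoal-stripped FBS, added compounds 5 hr later, incubated 24 hr, and read luminescence with ONE-Glo reagent.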
# [7] = target: Nuclear receptor subfamily 1 group I member 2 (Rattus norvegicus) (UniProt Q9R1A7); assay: Rat pregnane X receptor (rPXR) activation by small molecules, qHTS assay (AID 1346983); details: rPXR luciferase reporter cells, One-Glo luminescence, 24 h; max activation: stronger effect = higher value; also: potency is read from the fitted curve at half-maximal effect; nearly all actives have a fitted effect of over 20% in size
# Outline: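 Luminescent readout (One-Glo luciferase, 30 min room temperature) followed 24 hr compound treatment at 37 C of rPXR cells plated 2,000 per well and preincubated 5hr; qHTS format with compounds delivered in DMSO.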
# [8] = target: Nuclear receptor subfamily 1 group I member 2 (Homo sapiens) (UniProt O75469); assay: CYP3A4 induction through human pregnane X receptor (PXR) by small molecules, qHTS assay (AID 1346984); also: potency is read from the fitted curve at half-maximal effect; nearly all actives have a fitted effect of over 40% in size
# Outline: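 qHTS, concentration-response format: HepG2 DPX-2 line, PXR/CYP3A4-luc. Exposure 24 h, 37C. Substrate Luciferin-IPA 3uM final, 3 h. Detection One-Glo, 30 min RT.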
# [9] = target: Cytochrome P450 2D6 (Homo sapiens) (UniProt P10635); assay: Cytochrome P450 Family 2 Subfamily D Member 6 (CYP2D6) small molecule antagonists: luciferase reporter qHTS assay (AID 1671196); also: potency is read from the fitted curve at half-maximal effect; nearly all actives have a fitted effect of over 50% in size
# Outline: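 Luminescence (RLU), read 20 min after detection reagent, indicated CYP2D6 conversion of proluciferin to luciferin during a 1 h NADPH-dependent reaction at room temperature.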
# [10] = qHTS assay to identify small molecule agonists of the TGF-beta/Smad signaling pathway - cell viability counter screen (AID 1346829); also: top concentration of the series differs between compounds; % is scaled to controls: 0 for no effect and ±100 for the full control effect; nearly all actives have a fitted effect of over 45% in size
# Outline: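 CellTiter-Glo luminescence readout; SBE-bla HEK 293T cells, overnight plating, compound 5 hr at 37 C/5% CO2, then bla substrate 2 hr RT, then CellTiter-Glo 30 min RT.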
# [11] = target: Acetylcholinesterase (Homo sapiens) (UniProt P22303); assay: Acetylcholinesterase (AChE) small molecule antagonists: colormetric cell-based qHTS assay (AID 1347395; calls by dose curve; also: potency is read from the fitted curve at half-maximal effect; nearly all actives have a fitted effect of over 30% in size)
# Outline: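 Colorimetric read-out: DTNB detects thiocholine released when cellular AChE in SH-SY5Y cells hydrolyses acetylthiocholine. Cells attached overnight, received compound for 30 min at 37 C, then substrate mix for 90 min at 37 C.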
# [12] = target: Thyrotropin-releasing hormone receptor (Homo sapiens) (UniProt P34981); assay: qHTS assay to identify small molecule antagonists of the thyrotropin-releasing hormone receptor (TRHR) signaling pathway (AID 1346877; active = well fitted inhibition curve with a large enough effect in the repeat runs, not every such curve was filed as active; inconclusive = weak or mixed curves; also: potency is read from the fitted curve at half-maximal effect)
# Outline: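 Screening used HEK293 cells engineered with TRHR, with a brief 5 min room-temperature compound exposure preceding addition of TRH to 1 nM. The read-out was kinetic calcium-dye fluorescence, concentration-response from 15 doses in triplicate.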
# [13] = Caspase-3/7 induction in HepG2 cells by small molecules, qHTS assay (AID 1346978); also: % is scaled to controls: 0 for no effect and ±100 for the full control effect; nearly all actives have a fitted effect of over 15% in size
# Outline: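 Caspase-3/7 induction was measured by Caspase-Glo 3/7 luminescence (30 min, room temperature) after a 17 hr compound exposure of wild-type HepG2 cells seeded at 2,000 per well and pre-incubated 5 hr.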
# [14] = target: Acetylcholinesterase (Homo sapiens) (UniProt P22303); assay: Acetylcholinesterase (AChE) small molecule antagonists: fluorescence cell-based qHTS assay (AID 1347398; calls by dose curve; also: % is scaled to controls: 0 for no effect and ±100 for the full control effect; nearly all actives have a fitted effect of over 50% in size); details: Potency: AChE activity
# Outline: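 Read-out is Thiolite Green fluorescence at Ex/Em = 490/520 nm, formed by reaction with thiocholine released when cellular AChE in SH-SY5Y cells hydrolyzes acetylthiocholine. Compounds were preincubated 30 min at 37 C before substrate.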
# [15] = target: Cytochrome P450 2C19 (Homo sapiens) (UniProt P33261); assay: Cytochrome P450 Family 2 Subfamily C Member 19 (CYP2C19) small molecule antagonists: luciferase reporter qHTS assay (AID 1671197); also: potency is read from the fitted curve at half-maximal effect; nearly all actives have a fitted effect of over 65% in size
# Outline: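 Enzyme-substrate mix with proluciferin substrate (P450-Glo CYP2C19 system) preincubated with compounds 10 min at room temperature; NADPH regeneration solution added, 37C for 1 h; detection reagent stops reaction, luminescence read after 20 min. Ketoconazole positive control.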
# [16] = target: Thyrotropin-releasing hormone receptor (Homo sapiens) (UniProt P34981); assay: qHTS assay to identify small molecule agonists of the thyrotropin-releasing hormone receptor (TRHR) signaling pathway (AID 1346891; calls by dose curve; also: potency is read from the fitted curve at half-maximal effect)
# Outline: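 Intracellular calcium rise, read as fluorescence every second for 3 min, served as the agonist signal in dye-loaded HEK293 cells expressing TRHR; each compound ran at 15 concentrations in triplicate.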
# Tags tell the direction and shape of the fitted curve or compound fluorescence and quenching.
# Chain of UniProt P34981 (P34981 whole entry, looked up): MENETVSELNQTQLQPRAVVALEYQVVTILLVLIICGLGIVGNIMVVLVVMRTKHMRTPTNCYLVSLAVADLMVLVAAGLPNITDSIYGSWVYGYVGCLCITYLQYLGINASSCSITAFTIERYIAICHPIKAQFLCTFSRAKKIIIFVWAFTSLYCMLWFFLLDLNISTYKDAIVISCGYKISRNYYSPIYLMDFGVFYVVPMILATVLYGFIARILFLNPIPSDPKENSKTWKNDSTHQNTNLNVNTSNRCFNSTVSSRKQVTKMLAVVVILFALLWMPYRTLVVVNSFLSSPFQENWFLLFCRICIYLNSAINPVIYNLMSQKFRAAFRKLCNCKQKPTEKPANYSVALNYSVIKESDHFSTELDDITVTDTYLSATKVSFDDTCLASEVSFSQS
# Chain of UniProt P10635 (P10635 whole entry, looked up): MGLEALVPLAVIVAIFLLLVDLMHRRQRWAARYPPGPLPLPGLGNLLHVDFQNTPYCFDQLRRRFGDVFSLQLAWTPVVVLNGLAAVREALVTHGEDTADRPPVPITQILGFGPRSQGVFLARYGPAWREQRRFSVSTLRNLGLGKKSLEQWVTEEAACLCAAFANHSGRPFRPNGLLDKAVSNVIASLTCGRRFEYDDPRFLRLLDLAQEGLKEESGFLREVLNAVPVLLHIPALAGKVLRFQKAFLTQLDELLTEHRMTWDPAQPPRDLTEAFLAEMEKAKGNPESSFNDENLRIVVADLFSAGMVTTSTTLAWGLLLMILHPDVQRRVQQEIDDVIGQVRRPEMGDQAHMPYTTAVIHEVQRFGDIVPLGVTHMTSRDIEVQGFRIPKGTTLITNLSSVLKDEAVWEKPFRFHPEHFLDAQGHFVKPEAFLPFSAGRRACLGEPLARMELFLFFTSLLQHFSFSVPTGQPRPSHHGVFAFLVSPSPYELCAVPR
# Chain of UniProt P33261 (P33261 whole entry, looked up): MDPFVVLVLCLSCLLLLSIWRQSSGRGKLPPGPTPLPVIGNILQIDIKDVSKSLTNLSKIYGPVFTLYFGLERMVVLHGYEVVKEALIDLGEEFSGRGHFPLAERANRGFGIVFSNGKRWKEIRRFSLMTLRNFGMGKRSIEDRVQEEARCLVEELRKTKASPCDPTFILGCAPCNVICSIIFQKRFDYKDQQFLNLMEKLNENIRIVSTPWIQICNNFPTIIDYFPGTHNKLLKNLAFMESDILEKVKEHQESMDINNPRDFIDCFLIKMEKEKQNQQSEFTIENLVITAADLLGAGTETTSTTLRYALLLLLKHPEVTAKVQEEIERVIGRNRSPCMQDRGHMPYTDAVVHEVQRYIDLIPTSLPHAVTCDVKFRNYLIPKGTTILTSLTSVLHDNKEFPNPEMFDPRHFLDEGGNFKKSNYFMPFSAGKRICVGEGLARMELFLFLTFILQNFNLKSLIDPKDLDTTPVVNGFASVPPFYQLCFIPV
# Chain of UniProt P22303 (P22303 whole entry, looked up): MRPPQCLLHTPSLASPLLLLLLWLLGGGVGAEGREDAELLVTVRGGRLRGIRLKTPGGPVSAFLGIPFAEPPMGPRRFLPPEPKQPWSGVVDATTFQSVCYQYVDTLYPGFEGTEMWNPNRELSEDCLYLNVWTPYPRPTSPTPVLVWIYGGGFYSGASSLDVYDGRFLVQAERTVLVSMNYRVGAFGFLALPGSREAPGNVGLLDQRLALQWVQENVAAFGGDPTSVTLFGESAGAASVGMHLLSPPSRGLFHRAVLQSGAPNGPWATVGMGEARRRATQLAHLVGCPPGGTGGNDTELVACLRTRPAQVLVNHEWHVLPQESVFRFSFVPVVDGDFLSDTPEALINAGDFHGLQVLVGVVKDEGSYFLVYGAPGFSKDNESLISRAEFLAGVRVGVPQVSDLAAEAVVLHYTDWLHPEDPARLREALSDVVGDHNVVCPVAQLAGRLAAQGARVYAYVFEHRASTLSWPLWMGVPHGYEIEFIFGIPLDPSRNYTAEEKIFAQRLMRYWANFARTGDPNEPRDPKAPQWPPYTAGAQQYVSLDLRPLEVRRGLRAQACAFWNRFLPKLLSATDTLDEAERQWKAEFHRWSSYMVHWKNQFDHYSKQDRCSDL
# Chain of UniProt Q9R1A7 (Q9R1A7 whole entry, looked up): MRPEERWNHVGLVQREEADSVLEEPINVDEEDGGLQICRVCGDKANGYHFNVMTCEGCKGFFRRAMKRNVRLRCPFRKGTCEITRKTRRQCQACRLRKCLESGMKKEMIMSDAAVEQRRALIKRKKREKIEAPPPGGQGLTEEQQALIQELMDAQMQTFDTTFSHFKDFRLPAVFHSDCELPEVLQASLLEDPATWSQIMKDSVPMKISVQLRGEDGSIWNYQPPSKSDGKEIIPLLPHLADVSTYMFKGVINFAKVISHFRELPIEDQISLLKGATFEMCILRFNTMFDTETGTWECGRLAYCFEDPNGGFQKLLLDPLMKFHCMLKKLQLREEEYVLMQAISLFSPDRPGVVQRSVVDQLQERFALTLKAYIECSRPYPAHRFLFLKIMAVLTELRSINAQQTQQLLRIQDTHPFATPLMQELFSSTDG
compound,measurement,setting,value
CCCCCCBr,Potency,[1],inactive
CCN(C)N=O,Potency,[1],inactive
Nc1ccc(N)cc1,Potency,[1],inactive
same,"activity, negative = inhibition",[2],inconclusive: 0.55% and inconclusive: -1.53%
same,Potency,[3],"inconclusive: 39.8 µM [cytotoxic, partial curve]"
same,Potency,[4],"inconclusive: 29.8 µM [cytotoxic, partial curve] and inconclusive: 26.6 µM [cytotoxic, partial curve]"
same,Potency,[5],"inconclusive: 61.4 µM [cytotoxic, single point] and inconclusive: 26.6 µM [cytotoxic, partial curve]"
same,Potency,[6],active: 54.5 µM [middle of 4 runs]
same,Potency,[7],"inconclusive: 22.4 µM [activator, partial curve, poor fit]"
same,Potency,[8],"inconclusive: 0.794 µM [activator, partial curve, poor fit]"
same,Potency,[9],"inconclusive: 31.9 µM [inhibitor, partial curve] and inconclusive: 6.92 µM [inhibitor, full curve, poor fit] and inconclusive: 34.7 µM [inhibitor, partial curve]"
Cl/C=C\C[N+]12CN3CN(CN(C3)C1)C2,Potency,[10],inactive
same,Potency,[11],"inconclusive: 71 µM [inhibitor, partial curve]"
BrC(Br)C(Br)(Br)Br,Potency,[1],inactive
same,Potency,[12],active: 34 µM
same,"activity, negative = inhibition",[2],inconclusive: 6.61%
same,Potency,[13],inactive
same,Potency,[14],inactive
same,Potency,[15],active: 40.2 µM
O=C(O)C1(c2ccc3c(c2)OC[C@H](Cc2ccc(-c4ccccc4)cc2)[C@H]3O)CCCC1,Potency,[1],"inconclusive: 43.6 µM [rising, partial curve]"
same,Potency,[12],"inconclusive: 33.8 µM [inhibitor, single point]"
same,Potency,[16],"inconclusive: 43.6 µM [activator, single point]"
same,Potency,[3],"inconclusive: 77 µM [cytotoxic, single point]"
same,Potency,[4],inconclusive: 68.6 µM [cytotoxic]
same,Potency,[5],inactive
same,Potency,[6],"inconclusive: 68.6 µM [activator, single point]"
same,Potency,[15],"inconclusive: 89.4 µM [inhibitor, single point]"

# Source: PubChem BioAssay (Tox21)
